The text below walks through data of PubChem BioAssay AID2060624 (Molecular Pharmacology Branch, DTP, NCI, 2025).

A number of entries come with more than one value. The list is limited to them. There may be further records. Results that share an entry are repeated measurements across runs, samples, wells, individuals or studies.

The assay concerns 217524-143-R1-J4-PDC spheroids with HUVEC/MSC, viability. The assay is described as follows: Anticancer human tumor 217524-143-R1-J4-PDC patient-derived pancreatic carcinoma cell line growth inhibition [CLK]. To be noted: compound alone 0.0316 µM; stronger effect = lower value. The text has this:
A high-throughput screen of multi-cell type tumor spheroids was designed to identify active combinations of […] and targeted small molecules. Complex spheroids include a stromal component modeled by human endothelial cells (HUVEC) and fibroblasts modeled by human mesenchymal stem cells (MSCs). The concentration ranges selected for each drug and investigational agent were based upon clinically achievable concentrations if the clinical Cmax of the agent was known.
Compounds. The drugs and investigational agents: cirtuvivint (SM08502; NSC835563), CC-671 (NSC850746), vemurafenib (NSC761431), tapotoclax (NSC804041), sotorasib (NSC818433), adagrasib (NSC831453), MRTX-1133 (NSC836407), BAY2416964 (NSC825713), copanlisib (NSC816437), inavolisib (NSC800729), abemaciclib (NSC768073), osimertinib (NSC779217), entinostat (NSC756642), eltanexor (KPT-8602, NSC794443), venetoclax (NSC766270), ceralasertib (NSC777638), bortezomib (NSC756655), olaparib (NSC753686), talazoparib (NSC767125), alisertib (NSC759677), peposertib (NSC802822), gemcitabine (NSC613327), 5-fluorouracil (NSC19893), SN-38 (NSC673596), oxaliplatin (NSC266046), paclitaxel (NSC125973), and doxorubicin (NSC123127), were obtained from the National Cancer Institute (NCI) Developmental Therapeutics Program Chemical Repository. […] If the clinical Cmax for an agent had not been determined, the highest concentration tested was 10 microM. […]
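Note: spheroids exposed to agents for seven days before reading; 100% = DMSO vehicle control viability.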

One may read the viability, T/C as the result in the treated group divided by that in the control group, in per cent. For the molecule `CN1CCN(c2cc(C(=O)Nc3cc4cc(-c5cnn(C)c5)ccc4cn3)ccn2)CC1`, the viability, T/C is 65.4, 61.4, 78.2, 78.5, 71, 81.2, 76.5, 93.4, 90.9, 75, 77.5, 87.3%.
